The text below walks through data of paper PMC12136788.

First the molecules themselves.
B1: chr7:65705844:65705845:+_ENSG00000169902_ENST00000304842|hu_mus|FALSE|FALSE (ssRNA)
RNA: GGGAGUUCUACAGUCCGACGAUCAAACGGAUCUUUGUUACAUAAAUAAGGUGCCGGCUCCCCAUGUUUAACAAUGACCUCCAGAAGGAAGGCUUGCAUGGCAGAAUCUAGCACUUCAUCUGUGACACCCGCCUCAUCCAAGCGCAACAGAGGAUUGAGCAUCA
B2: 87861237_87861357_78_5pUTR_ENSMUSG00000018379_ENSMUST00000079866|mouse|control|control (ssRNA)
RNA: GGGAGUUCUACAGUCCGACGAUCACACCACCUCCCGACAUGGCGGCGGCGGCGACGACGAAAAGCGCGGACUCGGGGGGGGGGAAGGAAAAAAAAAAAAAGAGGCCUUCCUACCAAGCCUAGCGUACGGCAGAGCGAGCCCUCCAACAGAGGAUUGAGCAUCA
B3: chr3:9412954:9412955:+_ENSG00000134077_ENST00000452837|hu_mus|FALSE|FALSE (ssRNA)
RNA: GGGAGUUCUACAGUCCGACGAUCGGUUGAUAUCUCUUCUUUGAUGGCUGGAUUUUCAUAAUAGUCCAAGAUAUGUGAAUCUGAAGUGCUGCUGGCAUGCUUUUUCUUACCAUCUUUCUCAUCUGCUUUGUCUCCUUGUCCACACAACAGAGGAUUGAGCAUCA
B4: chr15:5129413:5129414:+_ENSMUSG00000050697_ENSMUST00000051186|mus_mus|FALSE|FALSE (ssRNA)
RNA: GGGAGUUCUACAGUCCGACGAUCAAAAUAGCAUGUUAAGAGGAAUAUGGAAAUAGUUCACAAUGUAACCAAAAAUGGAAACUAGUAGCUAUUUUGGAAGUUAAGGAGCCCAGAAAACAGCAUUAUCUAAUAAGGUCUAUGAGGCAACAGAGGAUUGAGCAUCA
B5: chr11:77340908:77340909:-_ENSG00000074201_ENST00000525064|hu_hu|motif|central (ssRNA)
RNA: GGGAGUUCUACAGUCCGACGAUCACUUCGGUCCCUGGAUAAUGCAUGUAAACUAAUGGUGGGGUAUUCCAGUGAGAAUCCGGAUCCAGAGCCAUCUAACCAAGACAGGCGGCUCUCAGCGAUGUAAAGGGUACCAGUGCCGAGCAACAGAGGAUUGAGCAUCA
B6: chr2:5814250:5814251:-_ENSMUSG00000025816_ENSMUST00000102981|mus_hu|mus_mus_mus_hu_True|28_108 (ssRNA)
RNA: GGGAGUUCUACAGUCCGACGAUCUUCCUUUCAGGCUUCUGAAUUUCUGGUAGAACUGCACAGAAUGGUUUGAUAACUUCUAAAAAUUUGAUGCCCAUGGCUGCUGCUCAGCACACCCAGGGGGAAACCGCGGCCUCGGCGCUGCAACAGAGGAUUGAGCAUCA
B7: chr14:76904430:76904431:+_ENSMUSG00000022010_ENSMUST00000022587|mus_mus|mus_mus_mus_hu_True|48_58 (ssRNA)
RNA: GGGAGUUCUACAGUCCGACGAUCUGCAGCCAAAAACACCCUCGUGGAAAAAAAGAGGGAACACCAGCAGCCUUGUACAAACUAGAUAAAACCGCCUGGCUUUCCGCAGCCCAGGGAGAAACAGAAAACGGCAGCCCUAAUUUACAACAGAGGAUUGAGCAUCA
B8: chrX:69798090:69798091:-_ENSMUSG00000031343_ENSMUST00000055966|mus_mus|mus_mus_mus_hu_False|78_108 (ssRNA)
RNA: GGGAGUUCUACAGUCCGACGAUCAAGUCCCCAGGUUCUUGUCGUCUUGAUUCCCCUUGGCUAGUGGUUCCAGGGAGAAUAUUAAUCAGGAAAAGAAUCCCAAGGCUGGUCAUGUAACAGUGACUUGUUUGUGUGAUUAUCAUCCAACAGAGGAUUGAGCAUCA
B9: 9574609_9576051_2272_CDS_ENSMUSG00000048264_ENSMUST00000174552|mouse|control|control (ssRNA)
RNA: GGGAGUUCUACAGUCCGACGAUCCCAGGGAUUUGCUCCAUCAGCCACUAUUAACAUGCGCAGCGAGGACAGGUUGACAUCUCUCUGAUCUCUGUGUGCUACAAGUGCCCAGUGCAUGUCUCUUGAUUUCACACAAGCCACUUUCAACAGAGGAUUGAGCAUCA
B10: chr7:97619395:97619396:-_ENSMUSG00000030614_ENSMUST00000032843|mus_mus|FALSE|FALSE (ssRNA)
RNA: GGGAGUUCUACAGUCCGACGAUCCAGGGAUGCAUAGGUCUUCAAAGCUUCAUAUUUAACCUUGAAACUGUUUCGGAAAACUAAGUUUGCCAUUAUGCCAGACAAACUACUACUUGUUCCAAAGACCAAAGUUCCAUGUAUAUUCAACAGAGGAUUGAGCAUCA
B11: chr2:65539780:65539781:-_ENSG00000198369_ENST00000356388|hu_mus|motif|central (ssRNA)
RNA: GGGAGUUCUACAGUCCGACGAUCGUUUGUAAAAUAAUUGAGUAAAAUUUAUCUCACUGAUGUGUUAUUCUAAGUAUUGCGGGGAUUUUAGAAGUGGCAAUGCAAUUCUAAAAAGUCCUAUUUUUCGGGUCAACUGGGCAAGCUCAACAGAGGAUUGAGCAUCA
B12: chr14:78183846:78183847:+_ENSG00000119705_ENST00000557342|hu_hu|hu_hu_hu_mus_False|18_18 (ssRNA)
RNA: GGGAGUUCUACAGUCCGACGAUCUCUCAGAAAUCUUUCUUCAUCAGAUGUUUGAGCUCCGUGCAAAGCCUUUGCUCUUUGAGCUUGAACGUGGAUCUAUGGGAGGGAAAGCACUGUAUUUUCCUGUAAUUUUUUUUUUAAAGACAACAGAGGAUUGAGCAUCA
B13: chr2:47387792:47387793:-_ENSG00000143933_ENST00000272298|hu_mus|motif|central (ssRNA)
RNA: GGGAGUUCUACAGUCCGACGAUCUAAGGACAAUGACAGUAAGAUAAGGGAAGAAAACAUGGAGGAAUGAAGUCCGGAUUACGGUACAUGCAUAUUUUUUGACAGUAGGGGGGGGGAACCUUUUACAGAUAAGUUACAAACAAACAACAGAGGAUUGAGCAUCA
B14: chr12:42180722:42180723:-_ENSMUSG00000036295_ENSMUST00000043884|mus_hu|mus_mus_mus_hu_True|88_88 (ssRNA)
RNA: GGGAGUUCUACAGUCCGACGAUCCUGUAGGAGAAGAAUCUGUGUGUCGGCAGGCAAUCUGGCUGGGAAAGUUAAAAGACCUAAAUCAUUACAAUCCACUGUAGAUGCUUCCAUAUAAAUGGAUCUGGGUGUAAACCAAGGCCUCAACAGAGGAUUGAGCAUCA

Some of the results follow.

For this assay, the target named is T1, UNK ZnF1-3 (human, UniProt Q9C0B0 31-174).
T1 sequence: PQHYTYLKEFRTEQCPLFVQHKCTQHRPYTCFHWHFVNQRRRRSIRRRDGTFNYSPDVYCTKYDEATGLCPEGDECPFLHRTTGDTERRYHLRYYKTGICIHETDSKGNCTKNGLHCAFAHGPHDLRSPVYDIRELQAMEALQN
Kind of assay: nsRBNS (natural sequence RNA bind-n-seq); RBNS binding buffer (assumed for nsRBNS): 25 mM Tris pH 7.5, 150 mM KCl, 3 mM MgCl2, 0.01% Triton X-100, 500 ug/ml BSA, 20 U/ml SUPERase-In, 4 C; UNK is unkempt and MSI1 is Musashi-1; names of the RNAs are library labels; protein concentration not given here; high values mean tight binding.
In the case of B1, the binding signal is 0.346 enrichment R.
The result for B2 reads 1.87 enrichment R; that for B3, 0.377 enrichment R.
As to B4, the binding signal is 1.67 enrichment R.
Turning to B5, the binding signal amounted to 1.53 enrichment R.
Next, B6: 1.04 enrichment R; B7: 2.37 enrichment R; B8: 0.716 enrichment R.
Next, B9: 1.05 enrichment R; B10: 0.55 enrichment R.
The result for B11 reads 0.77 enrichment R; that for B12, 0.869 enrichment R; that for B13, 1.89 enrichment R.
As for B14, the binding signal came out at 1.26 enrichment R.
